pIC50: −log10 of the molar value. The IC50 comes from the fitted curve, where viability falls to half of the control; a limit (>, <) means that the fit lies beyond the doses tested. The AUC spans the tested range (256-fold, ending at the top dose) of the same fit; it is 1 without any effect and falls as sensitivity rises. For part of these data: The top dose, if marked as inferred, is not printed in the source and was worked back from the curve model. For part of these data: Drugs with an entry number were screened twice under separate entries, and the two screens often disagree.
Experiments:
Experiment in all cases: Viability of human cancer cell lines after 72 h of drug (GDSC screen)
AZD6244 = compound: Cn1cnc2c(F)c(Nc3ccc(Br)cc3Cl)c(C(=O)NOCCO)cc21 [AZD6244]; settings: screen: GDSC drug entry 1062
Experimental: (§1)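 Human cancer cell lines in 384-well plates, medium with 10% serum, drug for 72 h over a 256-fold dose range (nine 2-fold or five 4-fold steps up to the top dose). Adherent lines were fixed and stained with the nucleic acid dye Syto60, suspension lines read with resazurin; signal relative to control wells, capped at 0 and 100%. One two-parameter sigmoid per drug and line, fitted in a mixed model over all curves with the slope shared within a line.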

ZM-447439 = compound: COc1cc2c(Nc3ccc(NC(=O)c4ccccc4)cc3)ncnc2cc1OCCCN1CCOCC1 [ZM-447439]; settings: top dose inferred
Experimental: as §1

PD-0332991 = compound: CC(=O)c1c(C)c2cnc(Nc3ccc(N4CCNCC4)cn3)nc2n(C2CCCC2)c1=O [PD-0332991]
Experimental: as §1

| Cell Line | AUC (AZD6244) | pIC50 (AZD6244) | AUC (ZM-447439) | pIC50 (ZM-447439) | AUC (PD-0332991) | pIC50 (PD-0332991) |
| --- | --- | --- | --- | --- | --- | --- |
| NCI-H1436 (small cell lung carcinoma, suspension, top dose 4 µM) | 0.983 | < 5.40 | 0.898 | < 5.40 | 0.986 | < 5.40 |
| NCI-H1563 (lung adenocarcinoma, adherent, top dose 4 µM) | 0.957 | < 5.40 | 0.981 | < 5.40 | 0.884 | < 5.40 |
| NCI-H1623 (lung adenocarcinoma, adherent, top dose 4 µM) | 0.858 | < 5.40 | 0.934 | < 5.40 | 0.917 | < 5.40 |
| NCI-H1651 (lung adenocarcinoma, adherent, top dose 4 µM) | 0.87 | < 5.40 | 0.845 | 5.49 | 0.946 | < 5.40 |
| NCI-H1688 (small cell lung carcinoma, adherent, top dose 4 µM) | 0.974 | < 5.40 | 0.973 | < 5.40 | 0.978 | < 5.40 |
| NCI-H1693 (lung adenocarcinoma, adherent, top dose 2 µM) | 0.897 | < 5.70 | 0.926 | < 5.70 | 0.852 | < 5.70 |
| NCI-H1694 (small cell lung carcinoma, suspension, top dose 4 µM) | 0.984 | < 5.40 | 0.945 | < 5.40 | 0.989 | < 5.40 |
| NCI-H1703 (lung adenocarcinoma, adherent, top dose 4 µM) | 0.961 | < 5.40 | 0.947 | < 5.40 | 0.716 | 5.92 |
| NCI-H1755 (lung adenocarcinoma, adherent, top dose 4 µM) | 0.942 | < 5.40 | 0.902 | < 5.40 | 0.855 | < 5.40 |
| NCI-H1770 (non-small cell lung carcinoma, suspension, top dose 4 µM) | 0.991 | < 5.40 | 0.935 | < 5.40 | 0.992 | < 5.40 |
| NCI-H1781 (lung adenocarcinoma, adherent, top dose 4 µM) | 0.989 | < 5.40 | 0.871 | 5.42 | 0.989 | < 5.40 |
| NCI-H1792 (lung adenocarcinoma, adherent, top dose 4 µM) | 0.951 | < 5.40 | 0.978 | < 5.40 | 0.837 | 5.64 |
| NCI-H1836 (small cell lung carcinoma, suspension, top dose 4 µM) | 0.988 | < 5.40 | 0.988 | < 5.40 | 0.988 | < 5.40 |
| NCI-H1869 (lung squamous cell carcinoma, adherent, top dose 4 µM) | 0.868 | < 5.40 | 0.957 | < 5.40 | 0.93 | < 5.40 |
| NCI-H1876 (small cell lung carcinoma, adherent, top dose 4 µM) | 0.987 | < 5.40 | 0.872 | 5.41 | 0.987 | < 5.40 |
| NCI-H1944 (lung adenocarcinoma, adherent, top dose 4 µM) | 0.985 | < 5.40 | 0.96 | < 5.40 | 0.899 | < 5.40 |
| NCI-H1975 (lung adenocarcinoma, adherent, top dose 4 µM) | 0.983 | < 5.40 | 0.931 | < 5.40 | 0.864 | < 5.40 |
| NCI-H1993 (lung adenocarcinoma, adherent, top dose 4 µM) | 0.983 | < 5.40 | 0.958 | < 5.40 | 0.975 | < 5.40 |
| NCI-H2009 (lung adenocarcinoma, adherent, top dose 4 µM) | 0.96 | < 5.40 | 0.874 | < 5.40 | 0.968 | < 5.40 |
| NCI-H2023 (lung adenocarcinoma, adherent, top dose 2 µM) | 0.956 | < 5.70 | 0.959 | < 5.70 | 0.81 | 5.86 |

| Cell Line | AUC (AZD6244) | pIC50 (AZD6244) | AUC (ZM-447439) | pIC50 (ZM-447439) | AUC (PD-0332991) | pIC50 (PD-0332991) |
| --- | --- | --- | --- | --- | --- | --- |
| NCI-H2052 (mesothelioma, adherent, top dose 4 µM) | 0.981 | < 5.40 | 0.978 | < 5.40 | 0.969 | < 5.40 |
| NCI-H2081 (small cell lung carcinoma, suspension, top dose 4 µM) | 0.986 | < 5.40 | 0.898 | < 5.40 | 0.989 | < 5.40 |
| NCI-H2085 (lung adenocarcinoma, adherent, top dose 2 µM) | 0.887 | < 5.70 | 0.917 | < 5.70 | 0.876 | < 5.70 |
| NCI-H2087 (lung adenocarcinoma, semi-adherent, top dose 4 µM) | 0.688 | 6.06 | 0.892 | < 5.40 | 0.772 | 5.78 |
| NCI-H2135 (non-small cell lung carcinoma, adherent, top dose 4 µM) | 0.984 | < 5.40 | 0.991 | < 5.40 | 0.991 | < 5.40 |
| NCI-H2141 (small cell lung carcinoma, suspension, top dose 4 µM) | 0.991 | < 5.40 | 0.985 | < 5.40 | 0.991 | < 5.40 |
| NCI-H2227 (small cell lung carcinoma, semi-adherent, top dose 4 µM) | 0.975 | < 5.40 | 0.801 | 5.65 | 0.986 | < 5.40 |
| NCI-H2291 (lung adenocarcinoma, adherent, top dose 4 µM) | 0.637 | 6.16 | 0.952 | < 5.40 | 0.907 | < 5.40 |
| NCI-H2342 (lung adenocarcinoma, adherent, top dose 4 µM) | 0.981 | < 5.40 | 0.97 | < 5.40 | 0.909 | < 5.40 |
| NCI-H2347 (lung adenocarcinoma, adherent, top dose 4 µM) | 0.767 | 5.74 | 0.971 | < 5.40 | 0.894 | < 5.40 |
| NCI-H2405 (lung adenocarcinoma, adherent, top dose 4 µM) | 0.979 | < 5.40 | 0.985 | < 5.40 | 0.908 | < 5.40 |
| NCI-H2444 (non-small cell lung carcinoma, adherent, top dose 4 µM) | 0.981 | < 5.40 | 0.944 | < 5.40 | 0.912 | < 5.40 |
| NCI-H2452 (mesothelioma, adherent, top dose 4 µM) | 0.983 | < 5.40 | 0.952 | < 5.40 | 0.906 | < 5.40 |
| NCI-N87 (stomach, adherent, top dose 4 µM) | 0.974 | < 5.40 | 0.96 | < 5.40 | 0.944 | < 5.40 |
| NCI-SNU-1 (stomach, suspension, top dose 4 µM) | 0.981 | < 5.40 | 0.985 | < 5.40 | 0.978 | < 5.40 |
| NCI-SNU-5 (stomach, suspension, top dose 4 µM) | 0.969 | < 5.40 | 0.966 | < 5.40 | 0.92 | < 5.40 |
| NCI-SNU-16 (stomach, suspension, top dose 4 µM) | 0.985 | < 5.40 | 0.941 | < 5.40 | 0.988 | < 5.40 |
| NEC8 (testis, adherent, top dose 4 µM) | 0.986 | < 5.40 | 0.952 | < 5.40 | 0.917 | < 5.40 |
| NH-12 (neuroblastoma, adherent, top dose 4 µM) | 0.898 | < 5.40 | 0.867 | < 5.40 | 0.83 | 5.53 |
| NKM-1 (acute myeloid leukaemia, suspension, top dose 4 µM) | 0.949 | < 5.40 | 0.915 | < 5.40 | 0.814 | 5.65 |

| Cell Line | AUC (AZD6244) | pIC50 (AZD6244) | AUC (ZM-447439) | pIC50 (ZM-447439) | AUC (PD-0332991) | pIC50 (PD-0332991) |
| --- | --- | --- | --- | --- | --- | --- |
| NMC-G1 (glioma, adherent, top dose 4 µM) | 0.928 | < 5.40 | 0.93 | < 5.40 | 0.9 | < 5.40 |
| NOMO-1 (acute myeloid leukaemia, suspension, top dose 4 µM) | 0.831 | 5.52 | 0.775 | 5.74 | 0.706 | 5.98 |
| NOS-1 (osteosarcoma, adherent, top dose 4 µM) | 0.911 | < 5.40 | 0.933 | < 5.40 | 0.922 | < 5.40 |
| NU-DUL-1 (B-cell lymphoma, suspension, top dose 4 µM) | 0.953 | < 5.40 | 0.839 | 5.70 | 0.807 | 5.80 |
| NUGC-3 (stomach, adherent, top dose 2 µM) | 0.751 | 6.13 | 0.83 | 5.83 | 0.811 | 5.91 |
| NUGC-4 (stomach, adherent, top dose 4 µM) | 0.901 | < 5.40 | 0.988 | < 5.40 | 0.939 | < 5.40 |
| NY (osteosarcoma, adherent, top dose 4 µM) | 0.987 | < 5.40 | 0.942 | < 5.40 | 0.97 | < 5.40 |
| OACM5-1 (oesophagus, semi-adherent, top dose 4 µM) | 0.986 | < 5.40 | 0.986 | < 5.40 | 0.986 | < 5.40 |
| OACp4C (oesophagus, adherent, top dose 4 µM) | 0.846 | 5.42 | 0.826 | 5.51 | 0.828 | 5.50 |
| OAW-28 (ovary, adherent, top dose 2 µM) | 0.728 | 6.17 | 0.809 | 5.85 | 0.946 | < 5.70 |
| OC-314 (ovary, adherent, top dose 4 µM) | 0.991 | < 5.40 | 0.924 | < 5.40 | 0.936 | < 5.40 |
| OCI-AML2 (acute myeloid leukaemia, suspension, top dose 4 µM) | 0.973 | < 5.40 | 0.962 | < 5.40 | 0.944 | < 5.40 |
| OCI-AML3 (acute myeloid leukaemia, suspension, top dose 4 µM) | 0.304 | 7.11 | 0.977 | < 5.40 | 0.959 | < 5.40 |
| OCI-AML5 (acute myeloid leukaemia, suspension, top dose 4 µM) | 0.986 | < 5.40 | 0.725 | 5.99 | 0.816 | 5.71 |
| OCI-LY7 (B-cell lymphoma, suspension, top dose 4 µM) | 0.997 | < 5.40 | 0.689 | 6.14 | 0.584 | 6.40 |
| OCI-LY-19 (B-cell lymphoma, suspension, top dose 4 µM) | 0.984 | < 5.40 | 0.838 | 5.62 | 0.816 | 5.70 |
| OCI-M1 (acute myeloid leukaemia, suspension, top dose 4 µM) | 0.993 | < 5.40 | 0.991 | < 5.40 | 0.995 | < 5.40 |
| OCUB-M (breast, adherent, top dose 4 µM) | 0.938 | < 5.40 | 0.838 | 5.66 | 0.972 | < 5.40 |
| OCUM-1 (stomach, adherent, top dose 4 µM) | 0.967 | < 5.40 | 0.9 | < 5.40 | 0.895 | < 5.40 |
| OE19 (oesophagus, adherent, top dose 4 µM) | 0.884 | < 5.40 | 0.921 | < 5.40 | 0.966 | < 5.40 |
